Measured values taken from the supplement of paper PMC11417369.
± gives the standard deviation of the averaged measurements. The list shows a part of the results.

Tested on: PfAP2-LT AP2 domain (GST-tagged)
Assay: gcPBM binding intensity (ln(normalized median fluorescence intensity)); higher = stronger DNA binding
Summary of the method: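 Each value is the highest Masliner-normalised natural-log median intensity across replicate spots of either orientation of a probe. The probes were primer-extended double-stranded 36-bp intergenic genomic sequences on an Agilent 4 × 180k array, alongside negative controls, exposed for 1 h to GST-tagged P. falciparum DNA-binding domains expressed in E. coli. Bound protein was picked up with Alexa488 anti-GST antibody and scanned at 488 nm.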

| Sequence | gcPBM binding intensity (ln) |
| --- | --- |
| TTATATAAAAAAAAATGTACATATAATTGGTAAATT [XGTACX_site5180] | 8.69 ± 0.49 |
| TATGTGATAACACGCACACAAATGTATTTAATTTAT [CACACA_site5435] | 9.12 ± 0.38 |
| AAAAAATGAAAATATTCCAAAATAGAGGGAAATGTA [GTGCAC_negctrl_site572] | 8.73 ± 0.45 |
| CACAAAAATGTAATCACACATATATATATATATATA [CACACA_site5818] | 9.88 ± 0.29 |
| TTATATTTATATATTTGTACGTATGTATATAATTCA [XGTACX_site2993] | 8.65 ± 0.38 |
| ATTCTAATAATATATACACACACATATATATTTATA [CACACA_site8629] | 9.14 ± 0.32 |
| AAAATTAGGAGACATGCATGTAACGATAAATATAAC [TGCATGCA_site148] | 9.67 ± 0.64 |
| CTTTTTTAAAATATTTAACACACAATTTTAATGCAT [CACACA_site9303] | 8.71 ± 0.41 |
| TAATTTTTATTCAAGAGTACACAAAAGATAACTAAA [XGTACX_site4060] | 8.28 ± 0.47 |
| TAAAAAAAATCATTCACACATATATGAAAAAAAAAA [CACACA_site5546] | 8.68 ± 0.55 |
| TTCTTACACGTTTGCACACTAAAATATATATATATA [CACACA_site434] | 9.09 ± 0.38 |
| TAGATACCTATAGAAACATGCAATTGAATATATTTC [TGCATGCA_site402] | 8.68 ± 0.46 |
| GTTACATACATATACACACACATATATATATATATA [CACACA_site901] | 10.2 ± 0.17 |
| TAAATAATTCTTTTAGTACACACGAATAAGCAGATA [CACACA_site305] | 8.76 ± 0.49 |
| AGATATAAGAAAAGCACACACACACCCAAAAAAAAA [CACACA_site2826] | 10.2 ± 0.18 |
| AAAATATATATTAACACACACACAAAAAAAAAAAAA [CACACA_site1325] | 9.74 ± 0.51 |
| GAAAATTATATGTGTTGTACACTTGCAACAACTATT [XGTACX_site3637] | 8.85 ± 0.5 |
| AATAAATATATGTACACACACAAATATATACATATC [CACACA_site1903] | 9.39 ± 0.29 |
| TTTTATAATGTTGTAGTGCAAAATACGTATATTTAT [GTGCAC_site9826] | 8.65 ± 0.4 |
| GGTGGCTAAATTACAACACACGACGGAATATTATAT [CACACA_site4114] | 9.14 ± 0.47 |
| AATATATGGTTTCATTATATTAAATTCAATTTAATG [CACACA_negctrl_site675] | 8.44 ± 0.36 |
| TTTTATTCATTGAGCACACAAAATAAATTATCAAAA [CACACA_site3279] | 8.44 ± 0.49 |

| Sequence | gcPBM binding intensity (ln) |
| --- | --- |
| TGATTTATCTATATTTTATAAGTTATTTATTTTTTT [CACACA_negctrl_site1603] | 8.46 ± 0.4 |
| AGTATATAATAATTTACACACAAAAAAATATCAGGA [CACACA_site3517] | 9.11 ± 0.5 |
| ACCGTGGGAAGACACACACACACACCCACATATATA [CACACA_site333] | 10 ± 0.3 |
| ATATAAATATTTATTAGTACACATTAGTGTAGTTTT [XGTACX_site4493] | 8.87 ± 0.42 |
| CTATATTATTTTTCTTGTACGTAGGAAATATAGCTA [XGTACX_site6176] | 8.47 ± 0.4 |
| TCTTGAAAAAGAATCAATCGGTCGACAAAAAAAAAA [CACACA_negctrl_site1099] | 8.88 ± 0.5 |
| TTTTTTAATATTTATTAATTAAACTTTGTTTTTGTT [XGTACX_negctrl_site454] | 8.44 ± 0.7 |
| ATATTCTTGTTTAATACACACTGTAGTATTATAGAT [CACACA_site6341] | 8.98 ± 0.32 |
| GACAAATAATAAAAGGTGCATTATACTTAACAAAAA [GTGCAC_site9624] | 8.83 ± 0.48 |
| AAAAAACACTTAAGGTGTACCTTTTAATATAAGTAT [XGTACX_site2397] | 8.73 ± 0.47 |
| AAAAATGTATGTATGGTGCAGTATTCATATCATTTT [GTGCAC_site9458] | 8.81 ± 0.4 |
| AAAATGAACAAACACACACACATATATATATATATA [CACACA_site2403] | 10.27 ± 0.057 |
| TTATTGTGTAAGATGATTTTCTTCGTCACTTTGAAA [CACACA_negctrl_site1814] | 8.48 ± 0.51 |
| GTAAAAAAAAAAAAAAGTACATTATACATATATTTA [XGTACX_site5447] | 8.47 ± 0.54 |
| TGTGTATATAAATAATGTACATATATATTTTTTTAT [XGTACX_site7341] | 8.62 ± 0.45 |
| AACCATAACTCATATGCACACATAAATATTACATAT [CACACA_site9273] | 9.23 ± 0.48 |
| AAAGTATAAATAAATACACACATATATATATATATA [CACACA_site2892] | 9.78 ± 0.21 |
| TGGAGGATAGTTCACAGTACCCAGTAACTCTACGGA [XGTACX_site4930] | 8.69 ± 0.47 |
| TACATTCGGAGTAAAAAAAAATTTATACAATTACTT [XGTACX_negctrl_site29] | 8.5 ± 0.51 |
| GGAAAAATATAATATGCATGTTATTATTTTTTTATA [TGCATGCA_site836] | 8.49 ± 0.45 |
| ACATGTGAATTTTAGGTGCACTTGTAATTTAACATT | 8.86 ± 0.42 |
| ATATATATATAATGTTGTACATAAATATTATATTTA [XGTACX_site5225] | 8.55 ± 0.36 |
